{"source": "PubChem BioAssay AID588342", "about": "(National Center for Advancing Translational Sciences (NCATS), 2011)", "note": "About 25,000 (6.9%) of roughly 360,000 compounds were called active. The inconclusive results got no clear call from the source; some entries with a clear call stand among them for comparison. Calls come from the whole dose curve; as a rule, active = well fitted inhibition curve with a large enough effect; inconclusive = small, poorly fitted or top-dose-only effect; inactive = flat fitted curve, though single readings scatter. Where the call is inconclusive, the potency comes from a doubtful curve fit. Potency is the fitted concentration of half-maximal effect; tags give direction and shape of the fitted curve.", "data": [{"target": "Luciferin 4-monooxygenase (Photinus pyralis) (UniProt P08659)", "sequence (P08659 whole entry, looked up)": "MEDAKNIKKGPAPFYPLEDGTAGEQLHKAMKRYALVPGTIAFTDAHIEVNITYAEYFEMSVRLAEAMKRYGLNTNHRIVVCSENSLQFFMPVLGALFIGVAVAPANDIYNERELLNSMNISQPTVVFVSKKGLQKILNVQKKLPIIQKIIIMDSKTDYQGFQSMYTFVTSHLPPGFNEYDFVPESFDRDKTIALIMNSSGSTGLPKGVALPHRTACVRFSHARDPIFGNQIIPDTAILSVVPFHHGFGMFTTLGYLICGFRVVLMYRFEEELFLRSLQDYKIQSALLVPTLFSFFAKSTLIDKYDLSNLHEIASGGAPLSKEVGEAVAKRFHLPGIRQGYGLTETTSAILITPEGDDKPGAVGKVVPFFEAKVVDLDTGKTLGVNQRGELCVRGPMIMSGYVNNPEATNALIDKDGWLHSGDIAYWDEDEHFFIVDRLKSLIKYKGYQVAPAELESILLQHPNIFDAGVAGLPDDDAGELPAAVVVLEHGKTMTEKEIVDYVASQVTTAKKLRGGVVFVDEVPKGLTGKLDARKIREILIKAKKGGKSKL", "test": "qHTS profiling assay for firefly luciferase inhibitor/activator using purifed enzyme and Km concentrations of substrates (counterscreen for miR-21 project); note: nearly all actives have a fitted effect of over 55% in size;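 for activity change, negative = inhibition: plate controls were vehicle for no effect and reference inhibitor for full effect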", "details": "purified FLuc, luminescence inhibition; series mostly up to 57.5 µM; activity change, negative = inhibition: at the top concentration", "method_in_brief": "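Purified P. pyralis luciferase (10nM final) with 10uM D-luciferin and 10uM ATP (Km levels) in 50mM Tris acetate pH 7.5, 10mM Mg acetate, 0.01% Tween-20, 0.05% BSA; qHTS 6-point titration, ~60 µM downward; luminescence read.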", "values": [{"smiles": "CCOc1ccc2oc(C(=O)NNC(=O)c3csc(N4CCOCC4)n3)c(C)c2c1", "Potency": "inconclusive: 26.9 µM [inhibitor, partial curve]"}, {"smiles": "CSC1=NCCN1C(=O)COc1ccc2ccccc2c1", "Potency": "inconclusive: 37.9 µM [inhibitor, single point]"}, {"smiles": "COc1ccc(CCNC(=O)c2ccc3c(Cl)c4c(nc3c2)CCCC4)c(OC)c1", "Potency": "inconclusive: 7.57 µM [inhibitor, partial curve, poor fit]"}, {"smiles": "CN(C)/C=C/C(=O)c1cccc(Oc2ncccn2)c1", "activity change, negative = inhibition": "inactive: -1.36%"}, {"smiles": "Cc1ccc(SCC(=O)NC(C)(C)C)cc1", "Potency": "inconclusive: 21.3 µM [inhibitor, single point]"}, {"smiles": "O=C(NCCSCc1ccco1)c1ccc(CN2CCOCC2)cc1", "Potency": "inconclusive: 30.1 µM [inhibitor, partial curve, poor fit]"}, {"smiles": "COc1cccc(CNC(=O)C(=O)Nc2ccc3nc4n(c(=O)c3c2)CCCCC4)c1", "activity change, negative = inhibition": "inactive: 5.13%"}, {"smiles": "O=C(O)c1ccc(N/N=C/c2ccc(-c3ccccc3)cc2)cc1", "Potency": "active: 0.478 µM"}, {"smiles": "Cc1ccc(-c2cc(C(=O)Oc3ccccc3Cl)no2)cc1C", "Potency": "inconclusive: 8.49 µM [inhibitor, partial curve]"}, {"smiles": "N#CC(=C1CCCC1)c1nc(-c2ccccc2)cs1", "Potency": "active: 1.35 µM"}, {"smiles": "Cc1ccc(OS(=O)(=O)c2ccccc2)c(/C=N/N=C2\\NC(=O)C(C)S2)c1", "note": "(configuration not stated)", "Potency": "inconclusive: 21.3 µM [inhibitor, single point]"}, {"smiles": "Cc1cc(-c2ccccc2)c2c3c(c(-c4ccccc4)n2n1)c(=O)n(C)c(=O)n3C", "activity change, negative = inhibition": "inactive: 0.361%"}, {"smiles": "CCOc1ccc(OCc2ccc(C(=O)OCc3ccccn3)o2)cc1", "Potency": "inconclusive: 33.8 µM [inhibitor, single point]"}, {"smiles": "O=C(c1cc2cc(Cl)ccc2[nH]1)N1CCc2ccccc2C1", "Potency": "inconclusive: 37.9 µM [inhibitor, partial curve, poor fit]"}, {"smiles": "CCc1ccc(OCC(=O)Nc2ccc(-c3nc4ncccc4o3)cc2)cc1", "activity change, negative = inhibition": "inactive: -2.02%"}, {"smiles": "Nc1ccc2nc(COc3ccccc3)[nH]c2c1", "Potency": "inconclusive: 21.3 µM [inhibitor, partial curve, poor fit]"}, {"smiles": "CC(=O)Cc1nsc(NC(=O)c2ccc(-c3ccc(Cl)c(C(F)(F)F)c3)o2)n1", "Potency": "inconclusive: 21.3 µM [inhibitor, partial curve]"}, {"smiles": "COc1cccc(-c2ccc(SCC(=O)NC3CCCCC3)nn2)c1", "Potency": "active: 15.1 µM"}, {"smiles": "O=C(Nc1nccs1)c1ncc(Cl)c(Cl)c1Cl", "Potency": "active: 13.5 µM"}, {"smiles": "CC(C)(C)n1ncc2c(=O)n(CC(=O)NC3CCCCC3)cnc21", "Potency": "inconclusive: 23.9 µM [inhibitor, partial curve]"}, {"smiles": "Cc1cccc(Nc2nc(-c3ccc(F)cc3)cs2)n1", "Potency": "active: 5.36 µM"}, {"smiles": "CCOc1ccc(C2=Nc3ccccc3C(c3ccc(N4CCOCC4)cc3)=NN2)cc1", "Potency": "inconclusive: 7.57 µM [inhibitor, partial curve, poor fit]"}, {"smiles": "Cn1sc(NC(=O)c2ccc(Cl)cc2)nc1=O", "Potency": "active: 2.39 µM"}, {"smiles": "CCc1ccc(-c2nc(CS(=O)CC(=O)NCc3ccccc3)c(C)o2)cc1", "note": "(configuration not stated)", "Potency": "inconclusive: 26.9 µM [inhibitor, single point]"}, {"smiles": "Cc1c(OCc2ccc(C(=O)O)cc2)ccc2c(-c3ccccc3)cc(=O)oc12", "Potency": "inconclusive: 37.9 µM [inhibitor, single point]"}, {"smiles": "CCN(CC(=O)Nc1cccc(OC)c1)C(=O)c1cnc(Cl)c(Cl)c1", "activity change, negative = inhibition": "inactive: 1.33%"}, {"smiles": "Cc1ccc(C(=O)Oc2oc(-c3ccco3)nc2C=Nc2ccccc2)cc1", "Potency": "active: 15.1 µM"}, {"smiles": "Cc1nn(C)cc1CN(C)C(=O)CC12CC3CC(CC(C3)C1)C2", "Potency": "inconclusive: 19 µM [inhibitor, partial curve]"}, {"smiles": "O=C(CCC1CCCC1)Nc1ccc([N+](=O)[O-])cn1", "Potency": "inconclusive: 30.1 µM [inhibitor, single point]"}, {"smiles": "CC(/C=N/N1C(=O)CSC1=S)=C\\c1ccccc1", "Potency": "inconclusive: 37.9 µM [inhibitor, single point]"}, {"smiles": "Cc1ccc2c(c1)C(=O)C(=O)N2CCCOc1ccccc1", "Potency": "inconclusive: 30.1 µM [inhibitor, single point]"}, {"smiles": "COc1ccccc1OCCn1c(=O)n(C)c2ccccc21", "Potency": "inconclusive: 37.9 µM [inhibitor, single point]"}, {"smiles": "COC(=O)c1ccc(N2CCN(c3ccccc3)CC2)nc1", "Potency": "inconclusive: 10.7 µM [inhibitor, partial curve]"}, {"smiles": "Cc1ccc(C(=O)Oc2c(S(=O)(=O)c3ccccc3)c(C)nn2-c2ccccc2)cc1", "Potency": "inconclusive: 8.49 µM [inhibitor, partial curve]"}, {"smiles": "Cc1ccc(NC(=O)CCNS(=O)(=O)c2cccc3nonc23)cc1Cl", "Potency": "inactive"}, {"smiles": "CCC(=O)n1nc(-c2ccc(OC)cc2)nc1SC", "Potency": "active: 19 µM"}, {"smiles": "COc1cccc(C2CC(c3cccs3)=NN2S(C)(=O)=O)c1", "note": "(configuration not stated)", "activity change, negative = inhibition": "inactive: 0.328%"}, {"smiles": "Cc1ccccc1C(=O)NCCc1csc(-c2ccc(C(F)(F)F)cc2)n1", "Potency": "inconclusive: 30.1 µM [inhibitor, partial curve, poor fit]"}, {"smiles": "Cc1ccccc1N1C(=O)c2cc(S(N)(=O)=O)c(Cl)cc2NC1C", "note": "(configuration not stated)", "activity change, negative = inhibition": "inactive: 1.21%"}, {"smiles": "O=C(NCC1COc2ccccc2O1)c1cc2ccccc2o1", "note": "(configuration not stated)", "Potency": "active: 13.5 µM"}, {"smiles": "O=C(/C=C/c1ccco1)Nc1nc(-c2ccc(F)c(F)c2)cs1", "Potency": "inconclusive: 7.57 µM [inhibitor, partial curve]"}, {"smiles": "O=Cc1cn(CCOc2ccccc2F)c2ccccc12", "Potency": "inconclusive: 30.1 µM [inhibitor, partial curve, poor fit]"}, {"smiles": "COc1ccc(-c2csc3ncnc(N4CCN(c5cccc(OC)c5)CC4)c23)cc1", "activity change, negative = inhibition": "inactive: -0.608%"}, {"smiles": "C=CCn1c(N/N=C/c2ccc(O)cc2)nc2ccccc2c1=O", "Potency": "active: 2.39 µM"}, {"smiles": "O=C(Nc1ccc2oc(-c3ccncc3)nc2c1)c1ccco1", "Potency": "inconclusive: 19 µM [inhibitor, partial curve]"}, {"smiles": "CC(C)[C@H](NC(=O)c1ccco1)C(=O)OCC(=O)c1ccc2c(c1)NC(=O)CO2", "Potency": "inconclusive: 23.9 µM [inhibitor, partial curve, poor fit]"}, {"smiles": "CC(/C=N/NC(=O)c1cc(-c2cccnc2)nc2c1c(C)nn2-c1ccccc1)=C\\c1ccccc1", "activity change, negative = inhibition": "inactive: 4.94%"}]}]}
